Test results taken from the supplement of paper PMC4967469.

Key:
Experiment in all cases: Viability of human cancer cell lines after 72 h of drug (GDSC screen)
Trametinib = compound: CC(=O)Nc1cccc(-n2c(=O)n(C3CC3)c(=O)c3c(Nc4ccc(I)cc4F)n(C)c(=O)c(C)c32)c1 [Trametinib]; conditions: top dose 1 µM
Method: (§1)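 Human cancer cell lines in 384-well plates, medium with 10% serum, drug for 72 h over a 256-fold dose range (nine 2-fold or five 4-fold steps up to the top dose). Adherent lines were fixed and stained with the nucleic acid dye Syto60, suspension lines read with resazurin; signal relative to control wells, capped at 0 and 100%. One two-parameter sigmoid per drug and line, fitted in a mixed model over all curves with the slope shared within a line.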

I-BET-762 = compound: CCNC(=O)C[C@@H]1N=C(c2ccc(Cl)cc2)c2cc(OC)ccc2-n2c(C)nnc21 [I-BET-762]; conditions: top dose 20 µM; top dose inferred
Method: as §1

HG-6-64-1 = compound: CCN1CCN(Cc2ccc(NC(=O)c3ccc(C)c(/C=C/c4cnc5[nH]ccc5c4OC)c3)cc2C(F)(F)F)CC1 [HG-6-64-1]; conditions: top dose 5.12 µM; top dose inferred
Method: as §1

AV-951 = compound: COc1cc2nccc(Oc3ccc(NC(=O)Nc4cc(C)on4)c(Cl)c3)c2cc1OC [AV-951]; conditions: top dose 0.128 µM; top dose inferred
Method: as §1

PF-4708671 = compound: CCc1cncnc1N1CCN(Cc2nc3ccc(C(F)(F)F)cc3[nH]2)CC1 [PF-4708671]; conditions: top dose 10 µM; top dose inferred
Method: as §1

KIN001-244 = compound: O=C(NC(COc1ccc2[nH]c(=O)[nH]c2c1)c1ccccc1)c1cccn(Cc2ccc(F)c(F)c2)c1=O [KIN001-244]; conditions: top dose 20 µM; top dose inferred
Method: as §1

MS-275 = compound: Nc1ccccc1NC(=O)c1ccc(CNC(=O)OCc2cccnc2)cc1 [MS-275]; conditions: top dose 5 µM; top dose inferred
Method: as §1

Cell Line	AUC (Trametinib)	IC50 (Trametinib) [nM]	AUC (I-BET-762)	IC50 (I-BET-762) [nM]	AUC (HG-6-64-1)	IC50 (HG-6-64-1) [nM]	AUC (AV-951)	IC50 (AV-951) [nM]	AUC (PF-4708671)	IC50 (PF-4708671) [nM]	AUC (KIN001-244)	IC50 (KIN001-244) [nM]	AUC (MS-275)	IC50 (MS-275) [nM]
LS-513 (large intestine, adherent)	0.383	29.5	0.857	17400	0.933	> 5120	0.985	> 128	0.987	> 10000	0.822	12300	0.987	> 5000
LS-1034 (large intestine, adherent)	0.428	38.8	0.861	20000	0.952	> 5120	0.986	> 128	0.986	> 10000	0.867	> 20000	0.915	> 5000
LU-134-A (small cell lung carcinoma, suspension)	0.979	> 1000	0.623	2800	0.959	> 5120	0.962	> 128	0.987	> 10000	0.927	> 20000	0.6	599
LU-139 (small cell lung carcinoma, suspension)	0.973	> 1000	0.751	8260	0.963	> 5120	0.962	> 128	0.924	> 10000	0.819	15700	0.526	375
LU-165 (small cell lung carcinoma, suspension)	0.987	> 1000	0.899	> 20000	0.938	> 5120	0.961	> 128	0.946	> 10000	0.906	> 20000	0.61	651
LXF-289 (lung adenocarcinoma, adherent)	0.631	142	0.976	> 20000	0.634	745	0.986	> 128	0.913	> 10000	0.918	> 20000	0.682	997
MC116 (B-cell lymphoma, suspension)	0.999	> 1000	0.765	5440	0.896	2950	0.999	> 128	0.997	> 10000	0.775	5740	0.739	1180
MC-CAR (haematopoietic neoplasm, suspension)	0.957	> 1000	0.55	1680	0.764	1670	0.97	> 128	0.97	> 10000	0.663	3350	0.967	> 5000
MDST8 (large intestine, adherent)	0.102	< 3.91	0.894	> 20000	0.958	> 5120	0.986	> 128	0.956	> 10000	0.873	19000	0.664	889
ME-1 (acute myeloid leukaemia, suspension)	0.881	> 1000	0.62	2750	0.826	3390	0.989	> 128	0.938	> 10000	0.983	> 20000	0.766	1970
MEG-01 (chronic myeloid leukaemia, suspension)	0.281	15.6	0.636	2890	0.108	< 20	0.787	52.1	0.934	> 10000	0.797	8780	0.698	1080
MFM-223 (breast, adherent)	0.87	912	0.989	> 20000	0.835	3320	0.987	> 128	0.981	> 10000	0.872	18800	0.983	> 5000
MHH-PREB-1 (B-cell leukaemia, suspension)	0.94	> 1000	0.657	3240	0.715	1200	0.988	> 128	0.934	> 10000	0.439	867	0.626	667
MLMA (hairy cell leukaemia, semi-adherent)	0.916	> 1000	0.475	1070	0.622	696	0.973	> 128	0.953	> 10000	0.626	2780	0.761	1790
MN-60 (B-cell leukaemia, suspension)	0.987	> 1000	0.558	1820	0.711	1290	0.972	> 128	0.988	> 10000	0.909	> 20000	0.872	> 5000
MOLT-4 (lymphoblastic leukaemia, suspension)	0.943	> 1000	0.887	15100	0.736	1280	0.985	> 128	0.982	> 10000	0.837	9980	0.606	577
MONO-MAC-6 (acute myeloid leukaemia, suspension)	0.834	708	0.854	17200	0.335	108	0.979	> 128	0.909	> 10000	0.755	7150	0.522	360
MPP-89 (mesothelioma, adherent)	0.773	511	0.703	5590	0.588	598	0.977	> 128	0.979	> 10000	0.801	13400	0.74	1910
MRK-nu-1 (breast, suspension)	0.989	> 1000	0.965	> 20000	0.882	4660	0.99	> 128	0.965	> 10000	0.775	7270	0.57	477

By IC50 is meant the dose at which the fit gives 50% viability; a fit beyond the top or the lowest dose is shown as a bound at that dose. AUC is the area under the same curve over the 256-fold range up to the top dose, as a fraction; it is 1 without any effect and falls as sensitivity rises. For some assays here: Where the top dose is marked as inferred, it comes from the curve model; the source does not state it.
